The supplement of paper PMC12217912
Some of the results follow. The full chains were built here from the parent and the listed change. Inactive controls read about 0.05.

B1: TEV protease; numbered along this chain (parent)
chain: MGESLFKGPRDYNPISSSICHLTNESDGHTTSLYGIGFGPFIITNKHLFRRNNGTLVVQSLHGVFKVKDTTTLQQHLVDGRDMIIIRMPKDFPPFPQKLKFREPQREERICLVTTNFQTKSMSSMVSDTSCTFPSGDGIFWKHWIQTKDGQCGSPLVSTRDGFIVGIHSASNFTNTNNYFTSVPKNFMELLTNQEAQQWVSGWRLNADSVLWGGHKVFMVKPEEPFQPVKEATQL

Variants of: B1
Experiment: raw area under fraction-flipped curve 0-4 h after induction (AUC4h, not background-subtracted), DNA-recorder readout of cleavage of the substrate (dimensionless); higher = more cleavage of the substrate by the protease variant
Settings: temperature: 34 °C; time window: 0-4 h after rhamnose induction
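Also: Bxb1 expression induced with 0.2% (w/v) L-rhamnose at OD600 near 0.5, cultures sampled hourly, flipped fraction per protease–substrate barcode pair counted by paired-end Illumina sequencing.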

Variant | area with substrate ENLYFDS | area with substrate ENLYFHS | area with substrate ENLYFKS | area with substrate ENLYFRS | area with substrate ENLYFSS | area with substrate ENLYFTS | area with substrate ENLYFWS | area with substrate ENLYFYS | area with substrate ENLYFES | area with substrate ENLYFFS | area with substrate ENLYFIS | area with substrate ENLYFPS | area with substrate ENLYFVS | area with substrate ENLYFLS | area with substrate ENLYFNS | area with substrate ENLYFMS | area with substrate ENLYFGS
MGESLFKGPRDYNPISSSICHLTNESDGHTTSLYGIGFGPFIITNKHLFRRNNGTLVVQSLHGVFKVKDTTTLQQHLVDGRDMIIIRMPKDFPPFPQKLKFREPQREERICLVTTNMQTKSMSSMVSDTSCTFPSGDGIFWKHWIQTKDGQCGSPLVSTRDGFIVGIHSASNFTNTNNYFTSVPKNFMELLTNQEAQQWVSGWRLNADSVLWGGHKVFMVKPEEPFQPVKEATQL [F117M] | 0.0561 | 0.0417 | 0.0614 | 0.0446 | 0.0807 | 0.0324 | 0.0358 | 0.0382 | – | – | – | – | – | – | – | – | –
MGESLFKGPRDYNPISSSICHLTNESDGHTTSLYGIGFGPFIITNKHLFRRNNGTLVVQSLHGVFKVKDTTTLQQHLVDGRDMIIIRMPKDFPPFPQKLKFREPQREERICLVTTNFQTKYMSSMVSDTSCTFPSGDGIFWKHWIQTKDGQCGSPLVSTRDGFIVGIHSASNFTNTNNYFTSVPKNFMELLTNQEAQQWVSGWRLNADSVLWGGHKVFMVKPEEPFQPVKEATQL [S121Y] | – | 0.0578 | – | – | – | – | – | 0.0606 | 0.0718 | 0.0765 | 0.0552 | 0.0605 | 0.0665 | – | – | – | –
MGESLFKGPRDYNPISSSICHLTNESDGHTTSLYGIGFGPFIITNKHLFRRNNGTLVVQSLHGVFKVKDTTTLQQHLVDGRDMIIIRMPKDFPPFPQKLKFREPQREERICLVTTNFQTKSMSSMVSDTSCTFPSGDGIFWKHWIQTKDGQCGSPLVSTRDGFIVGIHSASNFTNTNNYFTSVPKNFMELLTNQEAQQWVSGWRLNADSVLWGGHKVFMVTPEEPFQPVKEATQL [K221T] | – | 0.0538 | – | 0.0269 | – | – | – | – | 0.0709 | 0.0534 | 0.053 | 0.0508 | – | 0.0573 | 0.0802 | – | –
MGESLFKGPRDYNPISSSICHLTNESDGHTTSLYGIGFGPFIITNKHLFRRNNGTLVVVSLHGVFKVKDTTTLQQHLVDGRDMIIIRMPKDFPPFPQKLKFREPQREERICLVTTNFQTKSMSSMVSDTSCTFPSGDGIFWKHWIQTKDGQCGSPLVSTRDGFIVGIHSASNFTNTNNYFTSVPKNFMELLTNQEAQQWVSGWRLNADSVLWGGHKVFMVKPEEPFQPVKEATQL [Q59V] | – | – | – | – | – | – | 0.0697 | 0.0577 | 0.0884 | 0.0534 | – | 0.0711 | – | – | 0.0716 | 0.0605 | –
MGESLFKGPLDYNPISSSICHLTNESDGHTTSLYGIGFGPFIITNKHLFRRNNGTLVVQSLHGVFKVKDTTTLQQHLVDGRDMIIIRMPKDFPPFPQKLKFREPQREERICLVTTNFQTKSMSSMVSDTSCTFPSGDGIFWKHWIQTKDGQCGSPLVSTRDGFIVGIHSASNFTNTNNYFTSVPKNFMELLTNQEAQQWVSGWRLNADSVLWGGHKVFMVKPEEPFQPVKEATQL [R10L] | – | 0.0582 | – | – | 0.0618 | 0.0662 | – | 0.047 | 0.0687 | 0.07 | – | 0.0551 | – | – | – | – | 0.0507
MGESLFKGPRDYNPISSSICHLTNESDGHTTSLYGIGFGPFIITNKHLFRRNNGTLVVQSNHGVFKVKDTTTLQQHLVDGRDMIIIRMPKDFPPFPQKLKFREPQREERICLVTTNFQTKSMSSMVSDTSCTFPSGDGIFWKHWIQTKDGQCGSPLVSTRDGFIVGIHSASNFTNTNNYFTSVPKNFMELLTNQEAQQWVSGWRLNADSVLWGGHKVFMVKPEEPFQPVKEATQL [L61N] | – | – | – | – | – | – | – | 0.0658 | 0.0637 | 0.0577 | 0.0608 | 0.0538 | 0.0448 | 0.0575 | 0.0683 | 0.0751 | –
MGESLFKGPRDYNPISSSICHLTNESDGHTTSLYGIGFGPFIITNKHLFRRNNGTLVVQSLHGVFKVKDTTTLQQHLVDGRDMIIIRMPKDFPPFPQKLKFREPTREERICLVTTNFQTKSMSSMVSDTSCTFPSGDGIFWKHWIQTKDGQCGSPLVSTRDGFIVGIHSASNFTNTNNYFTSVPKNFMELLTNQEAQQWVSGWRLNADSVLWGGHKVFMVKPEEPFQPVKEATQL [Q105T] | – | 0.0702 | – | 0.0673 | 0.0818 | – | – | – | 0.0753 | 0.0733 | 0.0604 | 0.0524 | 0.059 | 0.0486 | – | 0.0956 | –
MGESLFKGPRDYNPISSSICHLTNESDGHTTSLYGIGFGPFIITNKHLFRRNNGTLVVQSLHGVFKVKDTTTLQQHLVDGRDMIIIRMPKDFPPFPQKLKFREPQREPRICLVTTNFQTKSMSSMVSDTSCTFPSGDGIFWKHWIQTKDGQCGSPLVSTRDGFIVGIHSASNFTNTNNYFTSVPKNFMELLTNQEAQQWVSGWRLNADSVLWGGHKVFMVKPEEPFQPVKEATQL [E108P] | – | 0.0488 | – | – | – | 0.0632 | 0.0314 | – | 0.0862 | 0.0339 | – | – | – | – | – | 0.0528 | –
MGESLFKGPRDYNPISSSICHLTNESDGHTTSLYGIGFGPFIITNKHLFRRMNGTLVVQSLHGVFKVKDTTTLQQHLVDGRDMIIIRMPKDFPPFPQKLKFREPQREERICLVTTNFQTKSMSSMVSDTSCTFPSGDGIFWKHWIQTKDGQCGSPLVSTRDGFIVGIHSASNFTNTNNYFTSVPKNFMELLTNQEAQQWVSGWRLNADSVLWGGHKVFMVKPEEPFQPVKEATQL [N52M] | – | 0.0533 | – | – | – | 0.0466 | – | – | 0.0558 | 0.0765 | 0.0405 | – | – | – | 0.0448 | 0.0623 | 0.081
MGESLFKGPRDYNPISSSICHLTNESDGHTTSLYGIGFGPFIITNKHLFRRNNGTLTVQSLHGVFKVKDTTTLQQHLVDGRDMIIIRMPKDFPPFPQKLKFREPQREERICLVTTNFQTKSMSSMVSDTSCTFPSGDGIFWKHWIQTKDGQCGSPLVSTRDGFIVGIHSASNFTNTNNYFTSVPKNFMELLTNQEAQQWVSGWRLNADSVLWGGHKVFMVKPEEPFQPVKEATQL [V57T] | – | – | – | 0.0703 | 0.0542 | 0.063 | 0.0592 | 0.0448 | 0.031 | 0.0587 | 0.0586 | 0.0662 | 0.0791 | – | 0.0567 | 0.0646 | 0.052
MGESLFKGPRDYNPISSSICHLTNESDGHTTSLYGIGFGPFIITNKHLFRRNNGTLVVQSLHGVFKVKDTTTLQQHLGDGRDMIIIRMPKDFPPFPQKLKFREPQREERICLVTTNFQTKSMSSMVSDTSCTFPSGDGIFWKHWIQTKDGQCGSPLVSTRDGFIVGIHSASNFTNTNNYFTSVPKNFMELLTNQEAQQWVSGWRLNADSVLWGGHKVFMVKPEEPFQPVKEATQL [V78G] | – | 0.0532 | 0.0702 | – | 0.0616 | 0.0418 | – | – | 0.0611 | 0.0749 | 0.0271 | 0.0577 | – | – | 0.0524 | 0.0491 | 0.0757
